Experiment: soluble on expression in E. coli; label from the status in PepcDB or PDB records

For “MMTVAHMWFDNQIHEADTTEDQSGATFDKRSPTWTALSRIAGLCNRAVFKAGQENISVSKRDTAGDASESALLKCIELSCGSVRKMRDRNPKVAEISFNSTNKYQLSIHEREDNPQSHVLVMKGAPERILDRCSSILVQGKEIPLDKEMQDAFQNAYLELGGLGERVLGFCQLNLPSGKFPRGFKFDTDELNFPTEKLCFVGLMSMIDHHHHHH”, the “soluble on expression in E. coli” value was “soluble”.
